Experimental data: article PMC4538830
These are yes or no findings as the source states them, for the method shown. For some assays here: Binding seen in cells or lysates may run through a third protein. Some binding calls cover weakened binding; strength is not graded here. For some assays here: Sequences can lack the tags named with a protein. Blank lines part the entries; values can stand above or below the binder they belong to.

Assays:
CWC15[80–229] (human) = CWC15[80–229] (human) (UniProt Q9P013); assay: SEC-MALS; mixture of purified His-CTNNBL1[77–563], CDC5L[1–195] and CWC15[80–229]; both purified
[1] = molecular target: T1, full-length recombinant His tagged CTNNBL1 (human) (UniProt Q8WYA6); assay: pull-down; His-CTNNBL1 (full length or [77–563]) as bait on Ni-NTA resin; 10–20 μg of each purified protein in pull down buffer, 1 h at 4°C; eluates on SDS-PAGE, Instant Blue; both purified
T1 sequence: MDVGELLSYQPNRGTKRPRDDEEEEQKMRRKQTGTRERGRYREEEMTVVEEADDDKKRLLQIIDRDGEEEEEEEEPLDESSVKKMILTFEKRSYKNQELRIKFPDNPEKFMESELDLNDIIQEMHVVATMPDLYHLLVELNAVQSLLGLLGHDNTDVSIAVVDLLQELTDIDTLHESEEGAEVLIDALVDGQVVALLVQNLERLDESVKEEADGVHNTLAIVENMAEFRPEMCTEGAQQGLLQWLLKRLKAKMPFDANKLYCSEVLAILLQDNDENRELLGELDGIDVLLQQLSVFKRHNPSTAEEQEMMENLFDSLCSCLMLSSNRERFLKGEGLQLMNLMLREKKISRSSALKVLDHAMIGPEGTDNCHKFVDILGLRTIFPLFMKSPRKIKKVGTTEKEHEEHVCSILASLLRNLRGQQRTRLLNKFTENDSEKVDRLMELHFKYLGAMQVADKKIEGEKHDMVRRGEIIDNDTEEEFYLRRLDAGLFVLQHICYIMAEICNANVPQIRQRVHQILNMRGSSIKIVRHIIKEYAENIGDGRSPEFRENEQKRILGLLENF

human HA-CWC15 (human) = molecular target: T2, human HA-CWC15 (human) (UniProt Q9P013); assay: co-IP; anti-HA resin, 1 h at 4°C, triton lysis buffer with benzonase; lysates of LPS and IL-4 stimulated mouse B cells transduced with human HA-CWC15; control (Ctnnbl1+/flx) and CTNNBL1-deficient (Ctnnbl1−/flx) cells; western blot
T2 sequence: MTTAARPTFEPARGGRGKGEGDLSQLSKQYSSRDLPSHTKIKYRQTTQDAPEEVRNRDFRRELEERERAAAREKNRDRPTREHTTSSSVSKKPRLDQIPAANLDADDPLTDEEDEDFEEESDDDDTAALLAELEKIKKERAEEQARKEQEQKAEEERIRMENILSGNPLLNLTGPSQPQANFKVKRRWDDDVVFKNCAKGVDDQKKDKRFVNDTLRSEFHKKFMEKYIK

[2] = molecular target: His-CTNNBL1[77–563] (human) (UniProt Q8WYA6); assay: SEC-MALS; CTNNBL1 (full length or [77–563]) alone; also in high salt buffer (0.5 M NaCl) or with CWC15[80–229] added; Supplementary Figure S7; both purified
[3] = molecular target: T1, full-length recombinant His tagged CTNNBL1 (human); assay: as above

binding (CWC15[80–229] (human)): no binding
B1: CWC15[80–229] (domain or fragment, UniProt Q9P013 80-229)
chain: TREHTTSSSVSKKPRLDQIPAANLDADDPLTDEEDEDFEEESDDDDTAALLAELEKIKKERAEEQARKEQEQKAEEERIRMENILSGNPLLNLTGPSQPQANFKVKRRWDDDVVFKNCAKGVDDQKKDKRFVNDTLRSEFHKKFMEKYIK

binding [1]: no binding
B2: GST tagged CWC15[1–79] fragment (domain or fragment, UniProt Q9P013 1-79)
chain: MTTAARPTFEPARGGRGKGEGDLSQLSKQYSSRDLPSHTKIKYRQTTQDAPEEVRNRDFRRELEERERAAAREKNRDRP

binding (human HA-CWC15 (human)): binds
B3: CTNNBL1 (endogenous, mouse B cells) (protein, UniProt Q9CWL8 1-563)
chain: MDVGELLSYQPNRGTKRPRDDEEEELKTRRKQTGPRERGRYREEEATAAEDTADDKKRLLQIIDRDGEEEEEEEEPLDESSVKKMILTFEKRSYKNQELRIKFPDNPEKFMESELDLNDIIQEMHVVATMPDLYHLLVELSAVQSLLGLLGHDNTDVSIAVVDLLQELTDIDTLHESEEGAEVLIDALVDGQVAALLVQNLERLDESVREEADGVHNTLAIVENMAEFRPEMCTEAAQQGLLQWLLKRLKAKMPFDANKLYCSEVLAILLQDNDENRELLGELDGIDVLLQQLSVFKRHNPSTAEEQEMMENLFDALCSCLMLSSNRERFLKGEGLQLMNLMLREKKVSRSSALKVLDHAMIGPEGTDNCHKFVDILGLRTIFPLFMKSPRKIKKVGTTEKEHEEHVCSILASLLRNLRGQQRTRLLNKFTENDSEKVDRLMELHFKYLSAMQVADKKIEGEKHDIVRRGEIIDNDMEDEFYLRRLDAGLFILQHICYIMAEICNANVPQIRQRVHQILNMRGSSIKIVRHIIKEYAENIGDGRSPEFRETEQKRILALLENF

B4: His-CTNNBL1[77–563] (domain or fragment, UniProt Q8WYA6 77-563)
chain: LDESSVKKMILTFEKRSYKNQELRIKFPDNPEKFMESELDLNDIIQEMHVVATMPDLYHLLVELNAVQSLLGLLGHDNTDVSIAVVDLLQELTDIDTLHESEEGAEVLIDALVDGQVVALLVQNLERLDESVKEEADGVHNTLAIVENMAEFRPEMCTEGAQQGLLQWLLKRLKAKMPFDANKLYCSEVLAILLQDNDENRELLGELDGIDVLLQQLSVFKRHNPSTAEEQEMMENLFDSLCSCLMLSSNRERFLKGEGLQLMNLMLREKKISRSSALKVLDHAMIGPEGTDNCHKFVDILGLRTIFPLFMKSPRKIKKVGTTEKEHEEHVCSILASLLRNLRGQQRTRLLNKFTENDSEKVDRLMELHFKYLGAMQVADKKIEGEKHDMVRRGEIIDNDTEEEFYLRRLDAGLFVLQHICYIMAEICNANVPQIRQRVHQILNMRGSSIKIVRHIIKEYAENIGDGRSPEFRENEQKRILGLLENF
binding [2]: no binding (condition: high salt buffer (0.5 M NaCl))

B5: full-length recombinant His tagged CTNNBL1 (protein, UniProt Q8WYA6 1-563)
chain: MDVGELLSYQPNRGTKRPRDDEEEEQKMRRKQTGTRERGRYREEEMTVVEEADDDKKRLLQIIDRDGEEEEEEEEPLDESSVKKMILTFEKRSYKNQELRIKFPDNPEKFMESELDLNDIIQEMHVVATMPDLYHLLVELNAVQSLLGLLGHDNTDVSIAVVDLLQELTDIDTLHESEEGAEVLIDALVDGQVVALLVQNLERLDESVKEEADGVHNTLAIVENMAEFRPEMCTEGAQQGLLQWLLKRLKAKMPFDANKLYCSEVLAILLQDNDENRELLGELDGIDVLLQQLSVFKRHNPSTAEEQEMMENLFDSLCSCLMLSSNRERFLKGEGLQLMNLMLREKKISRSSALKVLDHAMIGPEGTDNCHKFVDILGLRTIFPLFMKSPRKIKKVGTTEKEHEEHVCSILASLLRNLRGQQRTRLLNKFTENDSEKVDRLMELHFKYLGAMQVADKKIEGEKHDMVRRGEIIDNDTEEEFYLRRLDAGLFVLQHICYIMAEICNANVPQIRQRVHQILNMRGSSIKIVRHIIKEYAENIGDGRSPEFRENEQKRILGLLENF
binding [3]: no binding (condition: high salt buffer (0.5 M NaCl))
